Results from PubChem BioAssay AID493208 (National Center for Advancing Translational Sciences (NCATS), 2011).
The whole screen tested about 44,000 compounds, of which about 340 (0.77%) were called active. Another 5% or so got no clear call; they are omitted. Calls follow the shape of the dose curve; as a rule, active = well fitted inhibition curve with a large enough effect; inconclusive = small, poorly fitted or top-dose-only effect; inactive = flat fitted curve, though single readings scatter. Some of the results follow.

Test: Acumen qHTS Assay for Inhibitors of the mTORC1 Signaling Pathway in MEF (Tsc2-/-, p53-/-) Cells: Sytravon;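 also: plate controls were DMSO for no effect and rapamycin for full effect; nearly all actives have a fitted effect of over 50% in size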
Settings: phospho-rpS6 immunofluorescence/PI, 24 h; series mostly up to 38.3 µM; activity change, negative = inhibition: at the top concentration
Method in brief: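 Immunofluorescence of rpS6 phosphorylation in Tsc2-/-, p53-/- MEFs after 24 h compound exposure, normalized to propidium iodide signal. Activity is expressed as % positive cells, thresholded with 7.5 nM rapamycin.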

Activity change, negative = inhibition, inactive:
O=C(CSc1nnc(CNC(=O)c2c(F)cccc2Cl)o1)Nc1cccc(F)c1 -14.1%, O=C(c1cccs1)N1CCCc2cc(NS(=O)(=O)c3ccc(F)cc3)ccc21 -5.95%, COCCCNC(=O)CCc1c(C)nc2cc(-c3ccc(Cl)cc3)nn2c1C -16.9%, COc1ccccc1NC(=O)C1=C(C)Nc2nc(SCc3cc(C)ccc3C)nn2C1c1ccccc1 (stereo not given) -2.69%, O=C(c1ccc2c(=O)n(CCc3ccccc3)c(=O)[nH]c2c1)N1CCN(c2ccc(Cl)cc2)CC1 -9.92%, CCn1c(C)c(C)c2cc(C(=O)NCCc3ccc(C)cc3)ccc21 -0.454%, O=C1CC(c2ccc(Cl)cc2)N=C(NC(=O)c2ccccc2)N1 (stereo not given) -6.08%, Cc1ccccc1CS(=O)(=O)Cc1ccc(C(=O)NCc2ccc(F)cc2)o1 2.48%, COc1cccc(NC(=O)CCNC(=O)Cn2ccc3ccccc3c2=O)c1 10.2%, Cc1ccc(C)c(NC(=O)c2cc(=O)c3cc(C)cc(C)c3o2)c1 0.0842%, Cc1ccc(NC(=O)Cn2c(=O)ccc3cc(S(=O)(=O)N4CCC(C)CC4)ccc32)cc1Cl -0.31%, CC(C)C(=O)OCc1cc(=O)n2nc(C3CCCCC3)sc2n1 -5.05%, COCCNc1ncnc2c1c(-c1ccccc1)cn2-c1cccc(Cl)c1 -2.85%, Cc1ccc(NC(=O)CSc2nnc(N)s2)c(C)c1 -20.3%, COc1ccc(CNC(=O)C2CCN(S(=O)(=O)c3cccc4nonc34)CC2)cc1OC -0.0191%, CCc1ccc(NCc2cc3cc4c(cc3n(CC(=O)Nc3ccc(F)cc3)c2=O)OCCO4)cc1 -18.3%, Cn1ccnc1SCC(=O)Nc1cc(Cl)ccc1Cl 3.23%, CCCCNC(=O)CCc1c(C)nc2c(c(C)nn2-c2ccccc2)c1C 4.11%, CCN(CC)c1ccc(C2C(C(N)=O)=C(C)Nc3ncnn32)cc1 (stereo not given) 1.23%, Cc1ccc(NC(=O)C2CCCN2S(=O)(=O)c2cccc3cccnc23)cc1C (stereo not given) 1.04%, COc1cccc(OCc2nc3ccccc3n2CCOc2cccc(C)c2)c1 4.9%, Cc1ccccc1CN1CCCN(CC(=O)Nc2c(C)cccc2C)S1(=O)=O 7.49%, O=C(NCCc1ccccc1)c1cc(Sc2ccc(F)cc2F)nc2ccccc12 11.1%, COc1ccccc1N1CCN(C(CNC(=O)C(=O)NCCc2ccccc2)c2cccnc2)CC1 (stereo not given) 2.89%, COc1ccc(NS(=O)(=O)c2ccc3[nH]c4c(c3c2)CCCCCC4)cc1 -39.6%, Cn1c(=O)c2c(nc(SCC(=O)Nc3ccc(F)cc3)n2Cc2ccccc2)n(C)c1=O -9.34%, CCC(C(=O)Nc1ccc(C(C)=O)cc1)n1c(C)c2cnn(-c3ccccc3)c(=O)c2c1C (stereo not given) -3.28%, CCOc1cc(C2c3c(-c4ccccc4O)n[nH]c3C(=O)N2CCc2ccccc2)ccc1O (stereo not given) 6.22%, CNC(=O)COc1ccc(Nc2nnc(-c3ccc(C)c(S(=O)(=O)NC(C)(C)C)c3)c3ccccc23)cc1 21.4%, COc1ccc(-c2cc(C(F)(F)F)nc(SCCC(=O)Nc3c(C)cccc3C)n2)cc1 -2.47%, COc1cccc(-c2ccc3c(N)c(C(=O)Nc4ccc(C)c(F)c4)sc3n2)c1 -2.57%, COc1cc(NC(=O)Cn2cc(S(=O)(=O)c3ccccc3)c(=O)c3ccccc32)cc(OC)c1 -11.7%, CCc1ccc(C2c3c(oc4ccc(C)cc4c3=O)C(=O)N2c2nc(C)c(C)s2)cc1 (stereo not given) 9.99%, O=C(NCC12CC3CC(CC(C3)C1)C2)c1cc2nc(-c3ccc(F)cc3)cc(C(F)(F)F)n2n1 2.61%, O=C(Nc1ccc(F)cc1F)c1ccc(-n2cnnc2)cc1 -6.41%, COc1ccc(-c2onc(C)c2C)cc1S(=O)(=O)NC1CCC(C)CC1 (stereo not given) -7.53%, Cc1cc(-n2c(C)nc3ccccc3c2=O)ccc1NC(=O)c1cccc([N+](=O)[O-])c1 -3.23%, Cc1cccc(NC(=O)CSc2cc(C)c3ccccc3n2)c1 2.3%, CC(C)CNC(=O)C1=CC(c2ccc3c(c2)OCO3)=NS(=O)(=O)N1C 2.07%, Cc1ccc(Cn2c(CNC(=O)c3ccccc3Br)nc3cccnc32)cc1 2.02%, CCc1ccccc1NC(=O)Cc1c(C(=O)O)[nH]c2ccc(Cl)cc12 -2.74%, COc1ccc(N2CCN(C(=O)Nc3cccc(C(F)(F)F)c3)CC2)cc1 -6.76%, Cc1ccc(-n2c(=O)c3oc4ccccc4c3n(CC(=O)Nc3ccccc3)c2=O)cc1C 2.56%, Oc1c(C(c2ccccc2)N2CCN(c3ccccc3)CC2)sc2nc(-c3ccco3)nn12 (stereo not given) 1.14%, CCOC(=O)c1c(NC(=O)c2cc(-c3ccc(OC)cc3)on2)sc(C)c1C -1.09%, O=C(NCCc1ccccc1)C(=O)Nc1cccc(Br)c1 0.889%, Cn1c(CCNC(=O)c2ccco2)nc2cc(NC(=O)COc3ccc(Cl)cc3)ccc21 -18.9%, O=C(CSc1nc(=O)[nH]c2c1CCC2)NCc1ccccc1 -10.7%, Cc1ccc(C(=O)COC(=O)CCC(=O)Nc2ccc(Oc3ccccc3)cc2)cc1C 2.71%, Cc1ccccc1C(=O)Nc1nnc(S(=O)(=O)N2CCCCCC2)s1 9.42%, COC(=O)CC1Oc2ccccc2-n2cc(-c3ccc(Cl)cc3)nc21 (stereo not given) 7.6%, COc1ccc(CNC(=O)Cc2csc3nc(-c4ccc(C)cc4)cn23)cc1 -4.42%, Cc1ccc(Cl)cc1N1CCN(C(=O)C2CCN(Cc3nc(-c4cccc(Cl)c4)oc3C)CC2)CC1 1.68%, CCc1nn2c(=O)cc(COC(=O)C(c3ccccc3)c3ccccc3)nc2s1 -7.42%, Cc1cccc(-c2nc(SCC(=O)Nc3ccc4c(c3)OCCO4)c(-c3ccccc3)[nH]2)c1 -15.9%, Cc1cc(C)cc(N(CC(=O)NCc2ccccc2Cl)S(=O)(=O)c2c(C)noc2C)c1 -3.82%, COc1ccc(-n2nc(C(=O)NCCc3cccc(C)c3)c3c4ccccc4n(C)c3c2=O)cc1Cl 0.444%, CCOC(=O)c1ccc(Nc2cc(-c3ccccc3)nc(C)n2)cc1 -0.325%, CCOC(=O)Cn1c(=O)n(-c2ccccc2OC)c2nc(-c3ccccc3C)nc(C(N)=O)c21 0%, O=C(COc1ccccc1)Nc1ccccc1C(=O)OCc1cc(=O)n2nc(C3CC3)sc2n1 6.68%, CCOCCc1nn2c(=O)cc(COC(=O)C(CC)c3ccccc3)nc2s1 (stereo not given) 1.42%, COc1ccc(NC(=O)CCn2cccn2)cc1OC -1.44%, Cc1nnc(N2CCN(c3ccccc3F)CC2)c2c1nnn2Cc1ccccc1 -0.393%, CCOc1ccc(NC(=O)CC2C(=O)N(c3cccc(C)c3)C(=O)N2Cc2cccnc2)cc1 (stereo not given) -0.407%, CCOc1ccc(NC(=O)Cn2c(=O)n(CCC(=O)NCCc3ccccc3)c(=O)c3ccccc32)cc1 -2.49%, CCCn1cc(S(=O)(=O)c2ccc(CC)cc2)c(=O)c2ccccc21 -7.58%, Cc1ccc(Cn2c(=O)n(Cc3ccccc3Cl)c(=O)c3ccccc32)cc1 2.03%, CCCCc1nn2c(=O)cc(COC(=O)c3ccc(NC(=O)C4CCCCC4)cc3)nc2s1 0.759%, Cc1ccc2occ(-c3cc(-c4ccc(Cl)cc4)nc4c3COc3ccccc3-4)c(=O)c2c1 0.921%, Cc1ccc(N(C)C(=O)C2CCCN(c3ncnc4c3nc3n4CCCCC3)C2)cc1C (stereo not given) -8.36%, Cc1cccc(N2CCN(C3(c4ccccc4)C(=O)c4ccccc4C3=O)CC2C)c1 (stereo not given) -7.11%, COc1ccccc1CNC(=O)c1cnn2c(C)c(Cc3ccc(F)cc3)c(C)nc12 15.3%, Cc1ccc(C(c2sc3nc(-c4ccco4)nn3c2O)N2CCN(Cc3ccccc3)CC2)cc1 (stereo not given) 0.54%, COc1cccc(C2CC(=O)Nc3c2c(=O)nc2c(C)cccn32)c1OC (stereo not given) -5.32%, Cc1ccc(-c2nc3cc(Cl)ccc3o2)cc1NC(=O)COc1ccc(F)cc1 1.94%, CCOC(=O)c1ccc(NC(=O)CN2C(=O)COc3ccc(Cl)cc32)cc1 -5.04%, CC1=C(C(=O)OC2CCCC2)C(c2ccccc2Cl)CC(=O)N1 (stereo not given) 3.1%, Cc1c(C(=O)N2CCC(C)CC2)c(S(=O)(=O)N2CCN(c3ccc(Cl)cc3)CC2)c(C)n1C 11.6%, CCOc1ccccc1NC(=O)Cn1nnc(C(=O)Nc2ccc(C)c(C)c2)c1N 1.56%, Cn1nccc1C(=O)NCc1ccc2c(c1)CCN2C(=O)c1ccccc1 -15%, Cc1ccc(Cl)cc1N1CCN(C(=O)C2CCN(Cc3nc(-c4ccc(Cl)cc4)oc3C)CC2)CC1 -8.49%, CC(C)(C)OC(=O)N1CCC(c2c(C(=O)NC3CCCCC3)cnn2-c2cccc(Cl)c2)CC1 0%, CC1CCCN(CCCNC(=O)CN2C(=O)CSc3ccc(S(=O)(=O)N4CCOCC4)cc32)C1 (stereo not given) -0.929%, COc1ccc(-c2nc3sc(CCNC(=O)C(=O)Nc4c(C)cccc4C)c(C)n3n2)cc1 0.353%, COc1ccc(N2CCN(C(=O)c3oc4ccccc4c3NC(=O)c3ccccc3OC)CC2)cc1 0%, O=C(Cn1c(=O)oc2cc(S(=O)(=O)NC3CCCC3)ccc21)Nc1ccc(F)c(F)c1 -7.61%, Cc1ccc(Cl)cc1N1CCN(S(=O)(=O)c2cc3[nH]c(=O)c(=O)[nH]c3cc2C)CC1 -0.328%, CCc1ccc(OCC(=O)N(Cc2ccc(OC)cc2)C2CCS(=O)(=O)C2)cc1 (stereo not given) -18%, O=C(CCn1c(=O)c2cccn2c2cccnc21)N1CCN(c2cccc(Cl)c2)CC1 -12.1%, Cc1cccc(-c2nc(SCC(=O)Nc3ccc4c(c3)OCO4)c(-c3ccccc3)[nH]2)c1 -3.65%, CN1C(=O)Cc2cc(S(=O)(=O)NCCc3ccccc3)ccc21 -6.54%, COc1ccc(NC(=O)C2CCCN2S(=O)(=O)c2ccc3nc(-c4ccccc4)[nH]c3c2)cc1 (stereo not given) -5.97%, CCN1CCN(C(=O)c2ccc3c(c2)N(Cc2cccc(F)c2)C(=O)c2ccccc2S3)CC1 1.97%, COCCCNC(=O)Cn1cnc2sc(C)c(S(=O)(=O)N3CCN(c4ccccc4OC)CC3)c2c1=O -7.16%, CCOC(=O)c1cc(-c2ccc(C)cc2)n(CCC(=O)Nc2ccc(OC)c(OC)c2)c1C -11.9%
